{
  "source": "the supplement of paper PMC6531468",
  "note": "Some of the results follow. Values come from read counts of a selection and are noisy. Scores sum up all selected molecules that hold the word; the word was not tested alone.",
  "data": [
    {"system": "IMP3 KH3-4", "sequence (chain, as listed by the source)": "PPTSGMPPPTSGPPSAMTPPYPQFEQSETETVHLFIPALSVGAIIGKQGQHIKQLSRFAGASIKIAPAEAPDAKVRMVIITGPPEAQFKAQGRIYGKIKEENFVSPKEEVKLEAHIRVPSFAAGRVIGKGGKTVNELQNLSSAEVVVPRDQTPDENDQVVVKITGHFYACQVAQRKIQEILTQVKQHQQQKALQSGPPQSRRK", "test": "6-mer SELEX enrichment z-score vs GST control; IMP3 is the RNA-binding protein IGF2BP3; higher = more enriched by binding", "conditions": "construct: KH3-4 (377-579); SELEX round: R4", "method": "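SELEX-seq with GST-tagged IMP3 KH3-4 (Pro377-Lys579) and an N40 RNA pool, round 4. 6-mer z-score of sequence-tag enrichment normalised to the corresponding GST SELEX round; RNA k-mers written as DNA (T for U).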", "values": [
      {"sequence": "AGTTGC", "6-mer SELEX enrichment z-score": -0.24},
      {"sequence": "CCGAGA", "6-mer SELEX enrichment z-score": -2.08},
      {"sequence": "TTCGGT", "6-mer SELEX enrichment z-score": 0.246},
      {"sequence": "GACCCG", "6-mer SELEX enrichment z-score": -1.94},
      {"sequence": "AGGTAA", "6-mer SELEX enrichment z-score": 0.12},
      {"sequence": "ATGCCA", "6-mer SELEX enrichment z-score": -0.28},
      {"sequence": "GTCTGG", "6-mer SELEX enrichment z-score": 0.073},
      {"sequence": "GCTTAT", "6-mer SELEX enrichment z-score": 0.623},
      {"sequence": "CAAGGT", "6-mer SELEX enrichment z-score": -0.251},
      {"sequence": "TTATTC", "6-mer SELEX enrichment z-score": 1.16},
      {"sequence": "AGCGTT", "6-mer SELEX enrichment z-score": -1.69},
      {"sequence": "ACTCAA", "6-mer SELEX enrichment z-score": -1.47},
      {"sequence": "ACGGTA", "6-mer SELEX enrichment z-score": -0.292},
      {"sequence": "GCCAGT", "6-mer SELEX enrichment z-score": 0.223},
      {"sequence": "GGCCTG", "6-mer SELEX enrichment z-score": -0.052},
      {"sequence": "TAATTC", "6-mer SELEX enrichment z-score": 1.15},
      {"sequence": "TGCGTA", "6-mer SELEX enrichment z-score": -1.93},
      {"sequence": "TCAAGC", "6-mer SELEX enrichment z-score": -1},
      {"sequence": "GAGGTT", "6-mer SELEX enrichment z-score": 0.356},
      {"sequence": "AGGGTT", "6-mer SELEX enrichment z-score": 0.43},
      {"sequence": "CCGACC", "6-mer SELEX enrichment z-score": -2.56},
      {"sequence": "ATAACT", "6-mer SELEX enrichment z-score": 1.77},
      {"sequence": "CAACGC", "6-mer SELEX enrichment z-score": -1.17},
      {"sequence": "TTCGCG", "6-mer SELEX enrichment z-score": -0.292},
      {"sequence": "CGGTTA", "6-mer SELEX enrichment z-score": 0.167},
      {"sequence": "TCGGCT", "6-mer SELEX enrichment z-score": 0.817},
      {"sequence": "AGCCCG", "6-mer SELEX enrichment z-score": -1.53},
      {"sequence": "TATGAT", "6-mer SELEX enrichment z-score": 1.78},
      {"sequence": "AACCCT", "6-mer SELEX enrichment z-score": -2.05},
      {"sequence": "ATAGGG", "6-mer SELEX enrichment z-score": 1.16},
      {"sequence": "TTCCTG", "6-mer SELEX enrichment z-score": -0.073},
      {"sequence": "TAATGT", "6-mer SELEX enrichment z-score": 1.03},
      {"sequence": "TGGGTA", "6-mer SELEX enrichment z-score": 0.203},
      {"sequence": "CGGCCG", "6-mer SELEX enrichment z-score": 0.651},
      {"sequence": "GATCAA", "6-mer SELEX enrichment z-score": 0.145},
      {"sequence": "ACGGAA", "6-mer SELEX enrichment z-score": 0.205},
      {"sequence": "ATGTAA", "6-mer SELEX enrichment z-score": 1.46},
      {"sequence": "TGCCCG", "6-mer SELEX enrichment z-score": -1.56},
      {"sequence": "TCATGG", "6-mer SELEX enrichment z-score": 0.313},
      {"sequence": "GGACAC", "6-mer SELEX enrichment z-score": -0.016}
    ]}
  ]
}
